# Several values for one entry are separate records, joined by “and”; a condition that tells them apart may be missing. Identical values can stand only once. Among all 110,000 compounds or so, about 230 (0.21%) showed an effect of 50% or more. Some of the results follow.
# Molecular target: DPAP1 (Plasmodium falciparum, UniProt Q8IIJ9)
# Assay: primary screen, percent inhibition; read by cleavage of a fluorogenic dipeptide substrate; higher = more effect of the substance
# Set-up: species or system P. falciparum D10 trophozoite lysates; single well
# 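Also: 30 min substrate incubation versus DMSO and 10 µM JCP410 controls.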
# DPAP1, sequence (Q8IIJ9 whole entry, looked up): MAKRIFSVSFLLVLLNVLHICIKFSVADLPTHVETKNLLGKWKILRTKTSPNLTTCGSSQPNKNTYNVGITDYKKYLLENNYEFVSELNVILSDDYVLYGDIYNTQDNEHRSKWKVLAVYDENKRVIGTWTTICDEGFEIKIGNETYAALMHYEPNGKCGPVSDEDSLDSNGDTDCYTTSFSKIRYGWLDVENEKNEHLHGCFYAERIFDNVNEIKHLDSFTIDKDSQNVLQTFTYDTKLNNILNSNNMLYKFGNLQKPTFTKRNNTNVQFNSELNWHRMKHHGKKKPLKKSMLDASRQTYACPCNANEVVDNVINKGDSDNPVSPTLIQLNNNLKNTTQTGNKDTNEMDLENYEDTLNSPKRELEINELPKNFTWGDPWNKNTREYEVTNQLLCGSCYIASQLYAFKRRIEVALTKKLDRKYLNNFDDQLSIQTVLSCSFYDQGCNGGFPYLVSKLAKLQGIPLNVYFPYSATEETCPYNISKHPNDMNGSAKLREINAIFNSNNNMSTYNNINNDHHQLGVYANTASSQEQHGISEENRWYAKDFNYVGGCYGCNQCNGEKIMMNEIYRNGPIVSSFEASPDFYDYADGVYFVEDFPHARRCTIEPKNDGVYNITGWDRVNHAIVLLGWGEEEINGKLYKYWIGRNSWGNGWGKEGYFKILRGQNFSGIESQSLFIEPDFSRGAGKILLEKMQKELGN
row,SMILES,% Inhibition @ 10 uM
1,Brc1ccc2ncnc(-c3ccccc3)c2c1,-1.32%
2,CCOC(=O)c1c(NC(=O)c2ccnn2C)sc(C)c1C,6.08%
3,CCOC(=O)c1c(NC(=O)Cn2cnc3ccccc32)sc2c1CCCC2,6.08%
4,CN(C)c1ccc(/C=C/C(C)(O)c2ccccc2)cc1 (stereo not drawn),-2.63%
5,COc1ccccc1CNC(=O)CNC(=S)N(Cc1ccccc1)Cc1cccs1,1.27%
6,Cc1cc(F)ccc1NC(=O)c1sc2nc(-c3ccncc3)ccc2c1N,3.53%
7,COc1ccc(OC)c(N(CC(=O)Nc2ccc(F)cc2)S(=O)(=O)c2ccccc2)c1,-4.43%
8,Cc1cccc(N2CCN(C(=O)C3CC4CCC3C4)CC2)c1C (stereo not drawn),-0.267%
9,CO/C(O)=C1/C(C)=NC2=C(C(=O)CC(C)(C)C2)C1c1ccc(SC)cc1 (stereo not drawn),1%
10,CS(=O)(=O)c1nc(S(=O)(=O)c2ccc(Cl)cc2)c(NCCCN2CCOCC2)s1,-0.522%
11,Cc1ccc(CN2C(=O)CCC2C(=O)NCCc2ccc(Cl)cc2)cc1 (stereo not drawn),1.62%
12,CCc1ccc(/C(O)=C/c2nc3ccccc3nc2O)cc1,3.15%
13,Nc1ccc(Nc2nc(-c3ccc(Cl)cc3)cs2)cc1,-6.43%
14,Cc1cccc(CCNC(=O)c2cc3ccc4cccnc4c3[nH]2)c1,1.06%
15,CCOc1ccc(-c2nonc2NC(=O)c2oc3ccccc3c2C)cc1OCC,-1.47%
16,NC(=O)c1cc(NC(=O)c2ccc(F)cc2)cc(C(N)=O)c1,0.843%
17,O=C(Nc1ccc(F)cc1)c1cnccn1,-1.54%
18,COc1ccccc1/C=C1\SC(=O)N(CCC(=O)N2CCOCC2)C1=O,23.6%
19,NC(=O)C1CCN(C(=S)NC(=O)c2ccc(Cl)cc2)CC1,4.7%
20,Cc1ccccc1CCNC(=O)CCn1ccc2cc(S(=O)(=O)N3CCCC3)ccc21,3.99%
21,CC(=O)c1c(S)nc(-c2ccccc2)nc1Nc1ccccc1Cl,4.54%
22,CC1CCCC(N(C)C(=O)C2CCC(CNS(=O)(=O)c3cccc4nsnc34)CC2)C1C (stereo not drawn),1.26%
23,CCN(CC)C(=O)Cn1cc(SCC(=O)NCc2ccc(C)cc2)c2ccccc21,3.25%
24,O=c1/c(=C/c2cccc3ccccc23)sc2nc(-c3ccccc3)nn12,-3.33%
25,COc1ccc(S(=O)(=O)NC2CCSC2=O)cc1 (stereo not drawn),0.815%

row,SMILES,% Inhibition @ 10 uM
1,Cc1cc(C)cc(NS(=O)(=O)c2ccc(NC(=O)C(F)(F)F)cc2)c1,-2.76%
2,CC1CCN(C(=O)CSc2nnc(Cc3cccn3C)n2-c2ccc(Cl)cc2)CC1,-3.1%
3,O=S(=O)(NCCNS(=O)(=O)c1cccc2cccnc12)c1cccc2cccnc12,-2.37%
4,CCc1c(C#N)c(SC)nc(C)c1C(=O)Nc1ccccc1,1.43%
5,NC(=O)C1(N2CCCCC2)CCN(S(=O)(=O)c2ccc(-c3ccccc3)cc2)CC1,1%
6,Cc1nc(C)c(C(=O)NCc2nc3ccccc3[nH]2)s1,5.54%
7,CCc1ccc(-c2cn3nc(C(CC)CC)sc3n2)cc1,-0.946%
8,Cc1ccc(S(=O)(=O)N2CCN(CCCOc3cc(C)ccc3C)CC2)cc1,3.94%
9,Cc1ccc(CNC(=O)C(NS(=O)(=O)c2cccc3nsnc23)c2ccccc2)cc1 (stereo not drawn),10.9%
10,COc1ccc(-c2cc3c(=O)n(CC(=O)NC(C)c4ccccc4)ncn3n2)cc1 (stereo not drawn),-1.08%
11,COc1ccc(C(=O)Nc2nnc(CC(C)(C)C)s2)cc1OC,-3.33%
12,Cc1ccc(CNC(=O)CCn2ccc(C)n2)cc1,-5.52%
13,CCCNC(=O)Cn1ncc2c3ccccc3n(Cc3cccc(Cl)c3)c2c1=O,-3.35%
14,CC1CCCCC1NC(=O)Cn1ncc2c3ccccc3n(Cc3ccc(F)cc3)c2c1=O (stereo not drawn),-1.58%
15,C=CCC1(C#N)C(S)=NC2=C(C(=O)CC(C)(C)C2)C1C (stereo not drawn),2.7%
16,O=C(CCCOc1ccc(Cl)cc1Cl)N1CCCCC1,-1.92%
17,Cc1ccc2nsnc2c1NC(=O)c1cccc(Cl)c1,3.1%
18,COc1ccc(OC)c(CCNC(=O)C2CCCN(c3nc4c(C)cc(C)cc4s3)C2)c1 (stereo not drawn),6.46%
19,CCCC(=O)NCc1nc2ccccc2n1C(C)c1ccccc1 (stereo not drawn),-2.28%
20,CCOC(=O)c1c(C(=O)OCC)c(C)n(CCc2ccc(OC)c(OC)c2)c1C,1.68%
21,Cc1cccc(NC(=O)c2ccc(COc3ccc(Cl)cc3Cl)o2)n1,0.413%
22,COCCN1C(=O)c2[nH]nc(-c3ccccc3O)c2C1c1ccc(C(C)(C)C)cc1 (stereo not drawn),0.366%
23,Clc1cc(Cl)c2c(-c3ccccc3)[nH]nc(-c3ccccc3)c1-2,-2.51%
24,Cc1c(C(=O)NCc2ccccn2)sc2nc(-c3ccccc3)cn12,-0.138%
25,COc1ccc(NC(=O)Cc2coc3ccc4ccccc4c23)cc1,-1.38%

row,SMILES,% Inhibition @ 10 uM
1,COC(=O)c1ccc(/C=c2\sc3nc(-c4ccc(OC)c(OC)c4)nn3c2=O)cc1,0.561%
2,COc1cc(NC(=O)c2sc3nc4c(cc3c2N)CCCCC4)cc(OC)c1,4.83%
3,Cc1ccc2nc3c(O)n(CCCN4CCN(C)CC4)cnc-3c2c1,-3.52%
4,CCOC(=O)c1cc2c(=O)n3ccccc3nc2n(CC(C)C)/c1=N/C(=O)CCc1ccccc1,-1.2%
5,O=C(c1ccccc1)c1ccc2nc(NCCO)c3nncn3c2c1,-2.14%
6,CC12CC3CC(C)(C1)CC(C(=O)CCC(=O)O)(C3)C2,-0.833%
7,COc1cc(OC)cc(C(=O)N2CCN(Cc3cc(OC)c(O)c(OC)c3)CC2)c1,-3.41%
8,COc1ccc(CCNC(=O)c2ccc(C3SCC(=O)N3Cc3ccccc3)cc2)cc1 (stereo not drawn),0.193%
9,Cn1c(=O)c2c(nc(NCc3ccccc3)n2CCC#N)n(C)c1=O,-9.24%
10,C1=C(c2ccccc2)Nc2nnnn2C1c1ccccc1 (stereo not drawn),-3.93%
11,CCOc1ccc(N2CC(C(=O)NCCc3ccccc3)CC2=O)cc1 (stereo not drawn),1.4%
12,COc1ccc(-c2cc(C)no2)cc1S(=O)(=O)N(C)Cc1ccccc1,-1.54%
13,O=C(Nc1ccc2nccnc2c1)N1CCCCCC1,-1.32%
14,Cc1oc(-c2ccc(Cl)cc2)nc1CN1CCC(C(=O)N2CCN(c3ccccn3)CC2)CC1,0.689%
15,Cn1cc(Br)c(C(=O)NCc2cc3cc(Cl)ccc3[nH]2)n1,0.408% and -2.07%
16,Cc1cccc(CSc2nc(O)c3c(C)cc(C)nc3n2)c1,2.02%
17,CC1(C)C(C=C(Cl)Cl)C1C(=O)Nc1sc2c(c1C#N)CCCC2 (stereo not drawn),1.25%
18,Cc1cc(C)c2nc(-c3ccco3)cc(C(=O)O)c2c1,5.24%
19,Cc1ccc(C2=NN(S(=O)(=O)c3ccccc3)C(c3ccco3)C2)cc1 (stereo not drawn),-8.2%
20,CCCN1CCC(N2CCCC(CO)C2)CC1 (stereo not drawn),0.472%
21,O=C(CCN1CCN(CCO)CC1)Nc1ccc(C2CCCC2)cc1,-6.02%
22,O=C(CNS(=O)(=O)c1ccc(Br)s1)NC1CCCc2ccccc21 (stereo not drawn),-4.07%
23,COc1ccc(OC)c(N(CC(=O)NC2CC3CCC2C3)S(=O)(=O)c2ccc(C)cc2)c1 (stereo not drawn),-6.24%
24,O=C1CCCC2=C1C(c1ccc(F)cc1)Nc1ccc3ncccc3c12 (stereo not drawn),13.8%
25,COc1ccccc1NC(=O)NC(N)=O,-0.807%

row,SMILES,% Inhibition @ 10 uM
1,CCN(CC)C(=O)c1cc(-c2ccc(Cl)c(Cl)c2)on1,-5.77%
2,CCN(C(=O)Cc1ccccc1)C1CCCCC1,-3.42%
3,O=C(NC12CC3CC(CC(C3)C1)C2)c1cnn2c(C(F)(F)F)cc(-c3ccccc3)nc12,-0.441%
4,CC1(C)CC2=Nc3ccccc3NC(c3ccccc3)C2=C(O)C1 (stereo not drawn),2.13%
5,CC(=O)NCC1Cc2ccccc2Sc2ccccc21 (stereo not drawn),-4.69%
6,CC1=NC2=C(C(=O)CC(C)(C)C2)C(c2cccc(F)c2)/C1=C(\O)OC(C)C (stereo not drawn),-0.807%
7,CC1=C(C(=O)Nc2ccccc2C)C(c2ccccc2F)C2=C(O)CCCC2=N1 (stereo not drawn),5.66%
8,Cc1c(-c2ccccc2)oc(-c2ccccc2)c(C)c1=O,-2.02%
9,C=CCNC(=O)c1cc(-c2ccc(C)c(C)c2)nc2ccccc12,1.16%
10,CN1C(=O)c2ccccc2C(C(=O)NCc2cccc(Cl)c2)C1c1cccs1 (stereo not drawn),2.19%
11,CCCCCCNC(=O)c1cnc2ccc(S(=O)(=O)N3CCCCC3c3cccnc3)cc2c1O (stereo not drawn),3.47%
12,N#Cc1ccc(N2C(=O)C3C4C=CC(C4)C3C2=O)c(Cl)c1 (stereo not drawn),-3.45%
13,COc1ccccc1N1CCN(C(=O)CN(C2CCCCC2)S(=O)(=O)c2ccc(C)cc2)CC1,-5.19%
14,CCn1cc(/C=C(\NC(=O)c2ccccc2Cl)C(=O)NCCO)c2ccccc21,-3.52%
15,CN(C)CCCNC(=O)c1cc(Sc2ccc(F)cc2)nc2ccccc12,2.7%
16,CCOc1ccccc1C1NC(=O)NC(C)=C1C(=O)OC1CCCC(C)C1 (stereo not drawn),16.9%
17,COc1cc(-c2nnc3sc(COc4ccc(Cl)cc4)nn23)cc(OC)c1OC,6.01%
18,CCc1nc(SC)ncc1C(=O)NC(C)CCc1ccccc1 (stereo not drawn),6.16%
19,C=CCSC1=C(C#N)C(c2ccc(Cl)cc2Cl)CC(=O)N1 (stereo not drawn),2%
20,O=C(c1cc2nc(-c3ccco3)cc(C(F)(F)F)n2n1)N1CCN(c2ccccc2)CC1,-5.62%
21,CCOCCCNC(C)Cc1ccccc1F (stereo not drawn),-3.5%
22,COc1ccccc1NC(=O)/C(=C\c1ccc(Cl)cc1)NC(=O)c1ccccc1,2.45%
23,O=C(Cc1coc2ccc3ccccc3c12)N1CCCC1,2.01%
24,CCN1CCN(c2c(S(=O)(=O)c3ccccc3)cnc3ccc(OC)cc23)CC1,-6.24%

# Reference: paper PMC6919601, “Identification of Plasmodium dipeptidyl aminopeptidase allosteric inhibitors by high throughput screening” (PLoS ONE, 2019)
